In ChEMBL document CHEMBL1201862, “PubChem BioAssay data set” (2004):
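Interpolation was linear, between the two tested concentrations surrounding the appropriate level; five concentrations were tested over 48 hours in 96-well plates. GI50 marks 50% less growth.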 Active and inactive are the calls of the source. Rule as the data show it: active = GI50 up to about 1.1 µM and inactive = higher.

What follows are molecules tested on NCI-H322M (assay: DTP human tumour cell line panel, 48 h).

Row | SMILES | GI50
1 | N#C/C(=C/c1ccc[nH]1)P(=O)(O)O | inactive: > 100 µM
2 | COc1ccc2c([nH]c3c(O)c(-c4c(C)cc5c([nH]c6c(CC=C(C)C)c(OC)ccc65)c4O)c(C)cc32)c1CC=C(C)C [BISMURRAYAFOLINE B] | inactive: > 100 µM
3 | COc1cccc(C2CC23C(=O)NC(=O)NC3=O)c1 (stereo unspecified) | inactive: > 100 µM
4 | COc1ccc([Se][Se]c2ccc(OC)cc2OC)c(OC)c1 | inactive: 11.6 µM
5 | CCOC1OC(CO)C(O)CC1n1ccc(=O)[nH]c1=O (stereo unspecified) | inactive: > 100 µM
6 | Fc1ccc2c(c1)SC1=Nc3sc4cc(F)ccc4[n+]3CN12 | inactive: 29.2 µM
7 | N#CC12CNCC1CN=N2 (stereo unspecified) | inactive: > 100 µM
8 | NNC(=O)CCc1ccc2ccc3ccccc3c2c1 | inactive: > 100 µM
9 | CC(C)C1(O)C(c2ccccc2)=C(c2ccccc2)C(c2ccccc2)=C1c1ccccc1 | inactive: 5.56 µM
10 | O=C1C2c3[nH]c4ccccc4c3C3CCC(c4ccccc4)CC3C2C(=O)N1c1ccccc1 (stereo unspecified) | inactive: > 100 µM
11 | COC(=O)c1cc(-c2cccn2C)c2c(c1C(=O)OC)c1ccccc1n2C | inactive: > 100 µM
12 | c1ccc(NN/N=N/c2ccc(-c3nc4ccccc4[nH]3)cc2)cc1 | inactive: 41.9 µM
13 | COc1ccc(/C=N/Nc2nnc3c(n2)c2ccccc2c2nn(-c4ccccc4Cl)nc23)cc1 | inactive: > 100 µM
14 | O=C1CCCC2=C1CC1=C(CCCC1=O)N2c1ccccc1 | inactive: > 100 µM
15 | COc1ccc(/C=C2\C(=O)N(C(=O)c3ccc(NC(C)=O)cc3)N=C2C)cc1OC | inactive: > 100 µM
16 | CCOC(=O)c1c(Br)c(-c2ccc([N+](=O)[O-])cc2)c(Br)n1C | inactive: > 10 µM
17 | COc1cc(CC2C(=O)OCC2Cc2ccc(OC)c(OC)c2)ccc1O (stereo unspecified) | inactive: > 100 µM
18 | O=c1nc2n(CCO)c(-c3ccccc3)c(-c3ccccc3)nc-2c(=O)[nH]1 | inactive: > 100 µM
19 | C=CCOC(=O)CC[C@H](NC(=O)[C@@H](CCC(F)(F)F)Cc1ccc(O)cc1)C(=O)OCC=C | inactive: 63.4 µM
20 | CCC12C=CCN3CCC4(C(=C(C(=O)OC)[C@@H]1O)Nc1ccccc14)C32 (stereo partly specified) | inactive: 2.58 µM
21 | COc1cc2cccc(/N=C\c3ccccc3Cl)c2cc1OC | inactive: > 100 µM
22 | COc1cc(C2c3cc4c(cc3OC(N3CCCCC3)C2C)OCO4)cc(OC)c1O (stereo unspecified) | inactive: 16.9 µM
23 | CCCCN1C=CN2c3nc4cc(C)c(C)cc4n3C(C(=O)OC)=C(C(=O)OC)C12 (stereo unspecified) | inactive: > 100 µM

Row | SMILES | GI50
24 | NNc1cnn(-c2ccccc2)c(=O)c1Cl | inactive: > 100 µM
25 | CC1=C(CO)C(=O)OC(C(C)C2CCC3C4CC5OC56C(O)C(N5CC5)=CC(=O)C6(C)C4CCC23C)C1 (stereo unspecified) | inactive: 13.6 µM
26 | Cc1cc(O)c2c(c1O)C(=O)C1=C(C2=O)C(=O)C2C(O)C1C1C(O)CC(O)=C3C(=O)c4c(O)cc(C)c(O)c4C(=O)C321 (stereo unspecified) | inactive: 1.56 µM
27 | COc1cccc(/C=N/n2c(Cc3ccc(Cl)cc3)n[nH]c2=O)c1 | inactive: > 94.6 µM
28 | Cc1cc2nc3c(C#N)c(-c4ccccc4)cc(Nc4ccc(F)cc4)n3c2cc1C | inactive: 30.5 µM
29 | O=[N+]([O-])/C(Cl)=C(\NCCO)C(Cl)=C(Cl)Cl | inactive: > 100 µM
30 | N=c1oc2ccc(Cl)cc2cc1C(N)=O | inactive: 26.2 µM
31 | COC(=O)C12C3C4C5(C(=O)OC)C(C1C35C(=O)N(C(C)C)C(C)C)C42C(=O)N(C(C)C)C(C)C (stereo unspecified) | inactive: > 50 µM
32 | O=c1[nH]c(=O)n(C2OC3COC2C3O)cc1F (stereo unspecified) | inactive: > 100 µM
33 | CN(C)CC1CN(C(=O)Nc2ccccc2)C(=N)O1 (stereo unspecified) | inactive: > 100 µM
34 | CC(C)c1cccc(C(C)C)c1OS(=O)(=O)NC(=O)OC(C(F)(F)F)C(F)(F)F | inactive: 46.7 µM
35 | N#CC(C#N)/N=C/c1ccncc1 | inactive: > 100 µM
36 | CC(C)(C)OC(=O)N1CCCC1C(=O)NCCNc1ccc(NCCNC(=O)C2CCCN2C(=O)OC(C)(C)C)c2c1C(=O)c1ccccc1C2=O (stereo unspecified) | inactive: 16 µM
37 | Cc1cc(C)n(C(=O)C(C)Sc2nnc(SC(C)C(=O)n3nc(C)cc3C)s2)n1 (stereo unspecified) | inactive: > 100 µM
38 | COc1ccc(CSc2ccccc2Cn2cccc2)cc1OC | inactive: > 100 µM
39 | CC1(C)CCC(C)(C)c2cc(NC(=O)c3ccc(C(=O)O)cc3)ccc21 [TAMIBAROTENE] | inactive: 33.7 µM
40 | OCCC/N=C1N=C(Cl)/C(=C\c2ccccc2)N\1 | inactive: > 100 µM
41 | CNS(=O)(=O)NN(C)S(=O)(=O)c1ccc(C)cc1 | inactive: > 100 µM
42 | O=C1N[C@H]2c3c(Cl)sc(Cl)c3[C@@H](O)[C@H]2O1 | inactive: > 100 µM
43 | CCOP(=O)(/C=C\n1cnc2c(=O)n(C(C)=O)c(N)nc21)OCC | inactive: > 100 µM
44 | N#Cc1nc(Cc2cccs2)oc1N | inactive: > 100 µM
45 | COCc1nc2c(OC)c(-c3nc4ccc(N5CCN(C)CC5)nc4[nH]3)cc(OC)c2n1C | inactive: 17.8 µM
46 | CCOC(=O)C1=C(Nc2ccccc2)SC/C1=N\NC(=O)Cc1ccccc1 | inactive: > 100 µM
